{
  "source": "ChEMBL document CHEMBL4888484",
  "about": "“Replenishing the malaria drug discovery pipeline: Screening and hit evaluation of the MMV Hit Generation Library 1 (HGL1) against asexual blood stage Plasmodium falciparum ,using a nano luciferase reporter read-out” (2022)",
  "note": "In all, about 150,000 compounds went through this assay and about 540 (0.36%) showed an effect of 50% or more. The list shows a part of the results.",
  "data": [
    {"test_system": "Plasmodium falciparum", "test": "Primary screen in NF54 nanoGlo assay, in single point, at 2uM, 72h; a lower Z score goes with more inhibition", "assay_type": "functional, Erythrocyte", "conditions": "timepoint 72 hour", "units": {"% Inhibition": "%"}, "values": [
      {"molecule": "CC(=O)NCCNC(=O)C1CCC(C)(C)CC1", "% Inhibition": -14, "Z score": 2.19},
      {"molecule": "CCCc1nnc2sc(C3(c4ccccc4)CC3)nn12", "% Inhibition": 0, "Z score": 0.07},
      {"molecule": "CC(C)(C)OC(=O)N[C@H]1CONC1=O", "% Inhibition": -2, "Z score": 0.33},
      {"molecule": "Cc1ccc(CC(=O)N2CC[C@@]3(C2)C(=O)N(C)c2ccccc23)cc1", "% Inhibition": -12, "Z score": 1.6},
      {"molecule": "O=C(COc1ccc2nncn2n1)N(Cc1ccc2c(c1)OCO2)C1CC1", "% Inhibition": -16, "Z score": 2.4},
      {"molecule": "O=C(Cc1cccs1)N1CCC2(CCC(=O)N(CCc3cccnc3)C2)CC1", "% Inhibition": 5, "Z score": -1.07},
      {"molecule": "CCCn1c(=O)c2sccc2n(CC(=O)Nc2cc(C)on2)c1=O", "% Inhibition": 2, "Z score": -0.3},
      {"molecule": "NC(=O)CO[C@H]1CCOC[C@H]1NC(=O)c1ncccc1O", "% Inhibition": -17, "Z score": 2.98},
      {"molecule": "O=C(NCc1ccc2c(c1)OCO2)c1ccc2c(=O)n(-c3ccc(F)cc3)c(N3CCCC3)nc2c1", "% Inhibition": 7, "Z score": -1.4},
      {"molecule": "Cc1onc(-c2ccccc2Cl)c1C(=O)N1CC(COc2ccc(F)cc2)C1", "% Inhibition": 6, "Z score": -0.9},
      {"molecule": "COc1nc(C)cc(C)c1CN1CCN(C(=O)c2c(F)cccc2F)CC1", "% Inhibition": -7, "Z score": 1.07},
      {"molecule": "CCc1noc(CN(C[C@H]2CCOC2)C2CC2)n1", "% Inhibition": -3, "Z score": 0.46},
      {"molecule": "O=C(Cc1ccn[nH]1)NCC(F)(F)F", "% Inhibition": -3, "Z score": 0.48},
      {"molecule": "Cc1noc(C)c1CN1C(=O)[C@@H]2CC[C@H]1CN(c1nc3ccccc3o1)C2", "% Inhibition": -11, "Z score": 1.33},
      {"molecule": "CC(CCOc1ccccc1)C(=O)NCC1CN2CCCC2CO1", "note": "(stereo not drawn)", "% Inhibition": -16, "Z score": 1.67},
      {"molecule": "CN(C(=O)c1cc2c(s1)CCCCCC2)c1ccccc1", "% Inhibition": -7, "Z score": 0.62},
      {"molecule": "Cc1ccc(CN2CCCCCNC(=O)[C@@H]3CCC[C@@H]32)o1", "% Inhibition": -19, "Z score": 2.53},
      {"molecule": "Cc1ccc2c(c1)cc(CN[C@H]1CCS(=O)(=O)C1)c(=O)n2Cc1ccccc1Cl", "% Inhibition": -8, "Z score": 1.15},
      {"molecule": "CN(CC1(CO)CCCC1)c1ccnc(C(=O)NCc2cccnc2)c1", "% Inhibition": -8, "Z score": 1.04},
      {"molecule": "Cc1noc(C)c1CCC(=O)N(C)C1CN(c2ccc3nnc(C)n3n2)C1", "% Inhibition": -5, "Z score": 0.53},
      {"molecule": "Cc1cc(C(N)=O)c(NC(=O)CC[C@H]2CCCO2)s1", "% Inhibition": -8, "Z score": 1.28},
      {"molecule": "OCC1CCN(c2cc(-c3ccccc3)nc3ncnn23)CC1", "% Inhibition": -6, "Z score": 0.69},
      {"molecule": "c1cc(-c2ccnc3[nH]ccc23)nc(N2CCNCC2)c1", "% Inhibition": -6, "Z score": 1.23},
      {"molecule": "O=C(c1ccc(O)cc1)C1CCN(C[C@H](O)C(F)(F)F)CC1", "% Inhibition": 31, "Z score": -4.47},
      {"molecule": "CN(C)CCN1CCN(C(=O)c2ccc3c(c2)N(C)CC3)CC1", "% Inhibition": -13, "Z score": 1.14},
      {"molecule": "O=C1N2CCCC[C@H]2CS(=O)(=O)N1CCN1CCc2ccccc21", "% Inhibition": -5, "Z score": 0.64},
      {"molecule": "CC(C)O[C@@H](C)c1n[nH]c(=O)n1CCc1ccccc1F", "% Inhibition": 4, "Z score": -0.69},
      {"molecule": "Cc1onc(C(=O)N2CCC(c3nn(C)c(=O)n3C(C)C)CC2)c1COc1ccccc1", "% Inhibition": -1, "Z score": 0.16},
      {"molecule": "Cc1cc(CN(C)Cc2nnc3n2CCOCC3)ccc1C(F)(F)F", "% Inhibition": -5, "Z score": 0.72},
      {"molecule": "Nc1c2c(-c3ccc(Cl)cc3)nc(NCCN3CCCC3)nc2nn1-c1ccc(Cl)cc1", "% Inhibition": -13, "Z score": 1.2},
      {"molecule": "O=c1nc(NCc2ccc3c(c2)OCO3)cn[nH]1", "% Inhibition": -10, "Z score": 1.38},
      {"molecule": "Cc1cc(N)n(CC(=O)NCc2cccnc2N2CCN(C)CC2)n1", "% Inhibition": -5, "Z score": 0.54},
      {"molecule": "Cc1noc(C)c1CN(Cc1ccccc1)C[C@H](O)c1ccco1", "% Inhibition": 0, "Z score": -0.03},
      {"molecule": "COCCNc1oc(-c2cccnc2)nc1C#N", "% Inhibition": -4, "Z score": 0.55},
      {"molecule": "CC[C@H](NS(=O)(=O)NCC(F)(F)F)c1ccc(F)cc1F", "% Inhibition": -7, "Z score": 0.97},
      {"molecule": "CC1(C(=O)NC2CCCC(F)C2)COC1", "note": "(stereo not drawn)", "% Inhibition": -13, "Z score": 1.21},
      {"molecule": "Cc1nnc(CN2CCN(Cc3ccccc3)[C@H]3CS(=O)(=O)C[C@H]32)o1", "% Inhibition": -12, "Z score": 1.98},
      {"molecule": "Cn1cc(S(=O)(=O)N[C@@H]2C(=O)NCC2(C)C)cn1", "% Inhibition": -9, "Z score": 0.92},
      {"molecule": "COCc1cc(=O)n(Cc2cccc(OC)c2)c(N2CCCC2)n1", "% Inhibition": -1, "Z score": 0.13},
      {"molecule": "NC(=O)CN1CCC[C@H](NC(=O)c2ccc(-c3ccccc3)cc2)C1", "% Inhibition": -13, "Z score": 1.96},
      {"molecule": "O=C(Nc1ccc(N2CCOCC2)cc1)c1ccc2c(c1)CCCC2", "% Inhibition": -23, "Z score": 2.74},
      {"molecule": "CCOC(=O)c1c[nH]c(=O)n1Cc1ccccc1", "% Inhibition": -2, "Z score": 0.27},
      {"molecule": "Cc1nc(N(C)C)nc(N[C@H]2CCN(Cc3ccccn3)C[C@@H]2O)c1C", "% Inhibition": -2, "Z score": 0.36},
      {"molecule": "C[C@H]1C[C@@H](CO)CCN1S(=O)(=O)c1ccc2ccccc2c1F", "% Inhibition": 7, "Z score": -1.39},
      {"molecule": "COCCN(CC(=O)N1N=C(c2ccc(OC)cc2)C[C@H]1c1ccc2c(c1)OCO2)C(=O)C(C)C", "% Inhibition": 7, "Z score": -0.96},
      {"molecule": "Cc1ccnc([C@@H](NC(=O)Nc2c(C)ccc3nsnc23)C2CC2)c1", "% Inhibition": -8, "Z score": 1.46},
      {"molecule": "Cc1nn(C(C)C)c(C)c1NCc1cc(Br)c2c(c1)OCO2", "% Inhibition": -9, "Z score": 1.8},
      {"molecule": "COC[C@H](C)NC(=O)Nc1ccc(C)c(-c2nc(C)co2)c1", "% Inhibition": 4, "Z score": -0.69},
      {"molecule": "Cc1ccc(NC(C)(C)C(=O)NCCc2cccn2C)cc1", "% Inhibition": -15, "Z score": 1.4},
      {"molecule": "O=C(NCCc1ccco1)c1nnc(C(=O)Nc2ccc(F)cc2)s1", "% Inhibition": -12, "Z score": 2.03},
      {"molecule": "CCc1nn(-c2ccc(OC)cc2)c(Oc2ccc(F)cc2F)c1CN(C[C@H]1CCCO1)C(=O)C1CCC1", "% Inhibition": -11, "Z score": 1.83},
      {"molecule": "CC(C)c1nc(N2CCc3nc[nH]c(=O)c3C2)cc(C(C)(C)C)n1", "% Inhibition": 2, "Z score": -0.24},
      {"molecule": "Cc1ncsc1CN1CCC2(CC1)NCCc1c2[nH]c2ccccc12", "% Inhibition": 11, "Z score": -1.43},
      {"molecule": "Cc1cc(C)n(Cc2cc(-c3ccccc3)no2)n1", "% Inhibition": -11, "Z score": 2.07}
    ]}
  ]
}
